Measurements published in PMC4336329 (PLoS ONE, 2015).
The campaign covered roughly 310,000 compounds. About 14,000 (4.5%) showed an effect of 50% or more. Effects have a minus sign here. Some of the results follow.

molecular target: human ether-à-go-go-related gene (hERG) potassium channel (human, UniProt Q12809); experiment: primary screen, population patch clamp on CHO cells stably expressing hERG
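Further: peak tail current of the secondary pulse compared with the same well before compound.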

human ether-à-go-go-related gene (hERG) potassium channel, sequence (Q12809 whole entry, looked up): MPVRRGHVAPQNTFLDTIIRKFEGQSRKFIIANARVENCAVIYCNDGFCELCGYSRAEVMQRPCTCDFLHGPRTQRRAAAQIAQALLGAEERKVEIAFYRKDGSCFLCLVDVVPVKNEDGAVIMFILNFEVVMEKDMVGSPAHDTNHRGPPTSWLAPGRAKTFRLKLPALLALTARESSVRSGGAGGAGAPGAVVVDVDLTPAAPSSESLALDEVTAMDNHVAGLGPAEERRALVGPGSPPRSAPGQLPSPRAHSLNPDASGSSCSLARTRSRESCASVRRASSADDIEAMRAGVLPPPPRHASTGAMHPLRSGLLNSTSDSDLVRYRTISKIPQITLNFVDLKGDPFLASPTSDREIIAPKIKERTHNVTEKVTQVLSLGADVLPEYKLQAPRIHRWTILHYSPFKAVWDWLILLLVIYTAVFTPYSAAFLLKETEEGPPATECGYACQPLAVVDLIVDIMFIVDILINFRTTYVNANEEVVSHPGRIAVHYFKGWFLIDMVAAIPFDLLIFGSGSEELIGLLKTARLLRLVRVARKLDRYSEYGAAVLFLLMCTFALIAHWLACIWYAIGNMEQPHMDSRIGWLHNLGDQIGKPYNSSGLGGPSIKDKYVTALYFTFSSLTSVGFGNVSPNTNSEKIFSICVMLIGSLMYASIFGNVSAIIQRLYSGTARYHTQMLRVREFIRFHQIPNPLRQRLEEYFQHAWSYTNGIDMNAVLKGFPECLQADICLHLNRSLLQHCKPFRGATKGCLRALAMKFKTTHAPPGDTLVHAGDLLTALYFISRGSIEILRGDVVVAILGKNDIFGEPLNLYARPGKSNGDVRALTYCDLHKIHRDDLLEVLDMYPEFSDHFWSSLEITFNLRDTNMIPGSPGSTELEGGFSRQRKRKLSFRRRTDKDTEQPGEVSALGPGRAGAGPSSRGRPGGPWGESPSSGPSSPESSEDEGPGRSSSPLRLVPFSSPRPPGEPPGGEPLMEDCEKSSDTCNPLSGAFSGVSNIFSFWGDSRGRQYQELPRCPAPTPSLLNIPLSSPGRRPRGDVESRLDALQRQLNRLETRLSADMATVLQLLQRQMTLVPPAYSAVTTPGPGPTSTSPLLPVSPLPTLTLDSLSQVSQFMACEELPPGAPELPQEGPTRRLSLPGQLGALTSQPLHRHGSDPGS

Row | Compound | hERG current change (%, negative = inhibition) at 10uM [%]
1 | O=c1[nH]c(SCc2ccc(F)cc2Cl)nc2ccccc12 | 22.3
2 | CCN(CC)S(=O)(=O)c1ccc(NC(=O)CSc2nnc(-c3cccc(OC)c3)n2C)cc1 | -17.6
3 | COc1cc(/C=N/O)ccc1OCc1ccc(Cl)cc1 | 19.6
4 | Cc1ccc(C(=O)COC(=O)CNC(=O)c2cccs2)cc1 | -10.3
5 | Cc1cc(C)nc(CCNC(=O)c2cc(COc3ccccc3)on2)n1 | 1.31
6 | CCOC(=O)CC(=O)CSc1ccc2nnc(-c3ccccc3)n2n1 | -71.7
7 | COc1ccc(/C=C2\N=C(c3c(-c4ccccc4)noc3C)OC2=O)cc1OC | 3.74
8 | Cc1ccc(NC(=O)CSc2nnc(-c3cccnc3)n2CCN2CCCCC2)cc1 | -69
9 | COc1cc(C(=O)Nc2ccc(O)cc2C(=O)O)ccc1OC(C)=O | -4.06
10 | Brc1ccc(C2NCCS2)cc1 (centres unmarked) | 11.6
11 | Cc1nc2ccc([N+](=O)[O-])cc2c(=O)n1Cc1cccc(F)c1 | -33.6
12 | COc1ccc(S(=O)(=O)Nc2cc(Cl)ccc2OC)cc1 | -3.27
13 | CCCNC(=S)N1CCC(C(=O)c2ccc3c(c2)OCCO3)CC1 | -28.9
14 | Cc1nc(N2CCN(c3ccccc3)CC2)[nH]c(=O)c1CCC(C)C | 19.1
15 | CCOC(=O)C1=C(C)NC2=C(C(=O)CC(C)(C)C2)C1c1ccc2c(c1)CCCN2C (centres unmarked) | -10.7
16 | CCN1C(=O)c2cccc3c(S(=O)(=O)N(C(=O)c4cccnc4)c4ccc(OC)cc4)ccc1c23 | -2.72
17 | O=C(C1CC1)N1CCN(C(c2ccccc2)c2ccccc2)CC1 | 6.33
18 | COc1cc2c3c(c1)C(C)=CC(C)(C)N3C(=O)C2=O | 15.1
19 | Cc1ccc(N2CSC3=C(C#N)C(c4cccs4)CC(=O)N3C2)cc1 (centres unmarked) | 11.2
20 | Cc1ccc(NC(=O)Cn2c(CCC(=O)O)ccc2-c2cccs2)cc1 | -2.61
21 | CCOc1ccccc1NS(=O)(=O)N(C)C | -8.14
22 | CC(=O)c1cccc(NC(=O)CSc2ncc(C(=O)Nc3ccccc3)c(=O)n2C)c1 | -14.4

Row | Compound | hERG current change (%, negative = inhibition) at 10uM [%]
23 | CCOC(=O)c1sc(NC(=O)CSc2nc(C)cc(C(F)(F)F)n2)c(C#N)c1C | 4.26
24 | COc1cc(/C=N/NC(=O)CSCc2ccc([N+](=O)[O-])cc2)cc(OC)c1OC | -26.6
25 | CN(C)c1ccc2c3c(ccc(N(C)C)c13)COC2 | -34.8
26 | O=C1CC(SCc2nc3ccccc3[nH]2)C(=O)N1c1cccc(F)c1 (centres unmarked) | 4.27
27 | COc1ccc(-c2cn(/N=C/c3ccc(Cl)cc3Cl)c(N)n2)cc1 | -0.619
28 | NC(=O)C1CCN(Cc2nc3cc(C(F)(F)F)ccc3c(=O)[nH]2)CC1 | 8.39
29 | O=C(Nc1nccs1)c1ccc(Cl)nc1 | 17.9
30 | C=CCNC(=O)c1ccc2c3n(nc2c1)-c1ccccc1CO3 | -14.4
31 | CCOC(=O)c1nc2nc(C)cc(=O)n2[nH]1 | 2.41
32 | N#C/C(=C\c1cccnc1)C(=O)Nc1cccc(Cl)c1 | 0.0277
33 | CC1=C(C(=O)Nc2ccccc2F)C(c2ccsc2)C2=C(CC(C)(C)CC2=O)N1 (centres unmarked) | 3.24
34 | N#Cc1cn(CC(=O)NCc2cccnc2)c2ccccc12 | -0.289
35 | N#Cc1nc(Cc2ccccc2)oc1N1CCC(C(N)=O)CC1 | -8.65
36 | Cc1cc(C)nc(N2CCCC(C(=O)Nc3ccc4c(c3)OCO4)C2)n1 (centres unmarked) | 12.7
37 | COc1ccc2[nH]c(=O)c(CN(C(=O)c3cccnc3)c3ccc(C)cc3)cc2c1 | 7.25
38 | COc1ccccc1CN(Cc1ccco1)S(=O)(=O)c1ccc(-n2cnnn2)c(OC)c1 | 7.21
39 | Cc1ccc2c(C)c(C(=O)N(C)CCC3CCCCO3)oc2c1C (centres unmarked) | -33.9
40 | CSc1nsc(SCC(=O)Nc2ccc(OC(C)=O)cc2)n1 | 4.1
41 | COc1ccc2c(c1)CCc1c(C(=O)N3CCCc4ccccc43)noc1-2 | 5.68
42 | CCOc1ccc(-c2c(C(=O)N/N=C/c3ccc(C)cc3)nnn2-c2nonc2N)cc1 | -1.87
43 | C/C(=N\NC(=O)Nc1ccccc1)c1ccccc1 | 9.14
44 | Cc1c([N+](=O)[O-])c([N+](=O)[O-])nn1CC(=O)N1CCOCC1 | 23.2

Row | Compound | hERG current change (%, negative = inhibition) at 10uM [%]
45 | CCC1CCC2(CC1)NC(=O)N(CC(=O)Nc1ccc(OC)c(Cl)c1)C2=O (centres unmarked) | 0.761
46 | O=C(CSc1nnc(-c2ccncc2)o1)NC1CCCCC1 | 3.27
47 | CCn1c(SCC(=O)Nc2nc(C)cs2)nnc1-c1cccnc1 | -5.29
48 | CCc1ccc(/C=C(\C)C(=O)c2c(C)cc(C)[nH]c2=O)cc1 | -4.81
49 | N#C/C(=C\Nc1ccc2c(c1)OCCO2)c1nc(-c2ccccc2)cs1 | 23.4
50 | c1ccc2c(CSc3nnc(-c4ccncc4)o3)cccc2c1 | -12.8
51 | COc1ccc(/C=N/NC(=S)Nc2cc(S(=O)(=O)N3CCOCC3)ccc2N2CCOCC2)cc1O | -7.4
52 | Cc1cccc(-n2c(-c3csc(C(C)C)c3)n[nH]c2=S)c1 | -6.32
53 | Cc1ccc(-c2noc(CN3CCN(Cc4ccccc4)CC3)n2)cc1 | -34.3
54 | CC(=O)N1CCc2cc(Br)cc(S(=O)(=O)NCc3ccc(Cl)cc3)c21 | -58.6
55 | C=CCNC(=O)c1ccccc1NC(=O)C1CCN(S(=O)(=O)c2ccc(SC)cc2)CC1 | -70
56 | COCCn1c(=O)c2c(nc3n2CCCN3CCc2ccc(OC)c(OC)c2)n(C)c1=O | 0.432
57 | Cc1cccc(N/N=C2/COC(C)(C)CC2=O)c1 | 5.86
58 | CCN(CC)C(=O)CSc1ncnc2sc(C)c(C)c12 | -23.9
59 | CC1CC(C)CN(C(=O)COC(=O)CCCN2C(=O)c3cccc4cccc(c34)C2=O)C1 (centres unmarked) | -20.2
60 | NNC(=O)c1oc2ccccc2c1-n1cccc1 | 10.2
61 | COc1cc([C@@H]2c3cc4c(cc3[C@@H](O[C@@H]3O[C@@H]5CO[C@@H](C)O[C@H]5[C@H](O)[C@H]3O)[C@H]3COC(=O)[C@H]23)OCO4)cc(OC)c1O | 8.25
62 | Cn1c(N)c(C(=O)COC(=O)/C=C/c2ccc(F)cc2)c(=O)n(C)c1=O | -51.8
63 | COc1ccc(N(CC(=O)NCc2ccccc2OC)S(=O)(=O)c2ccccc2[N+](=O)[O-])c(OC)c1 | 3.17
64 | N#Cc1ccccc1NC(=O)COC(=O)C1CCN(C(=O)c2ccc(Cl)cc2)CC1 | -62.5
65 | COc1ccccc1/C=C1\SC(=S)N(Nc2nc(C)cc(C)n2)C1=O | -0.159
66 | CCCCOC(=O)c1ccc(NC(=S)NC(=O)c2c(Cl)cnn2CC)cc1 | -4.98

Row | Compound | hERG current change (%, negative = inhibition) at 10uM [%]
67 | O=C(c1ccccc1F)N1CCN(S(=O)(=O)c2ccc(Br)cc2)CC1 | -36.6
68 | Cn1c(=O)c2cc(S(=O)(=O)N3CCOCC3)ccc2n(C)c1=O | -10.1
69 | COc1ccc(-c2noc(-c3cccc(Cl)c3)n2)cc1OC | 14.1
70 | O=[N+]([O-])c1cc(S(=O)(=O)Nc2cccc(Cl)c2)ccc1N=Nc1c(O)[nH]c2ccccc12 | 0.91
71 | CCOc1ccc(C(=O)COC(=O)c2cc([N+](=O)[O-])ccc2N2CCOCC2)cc1 | -19
72 | COc1ccccc1N1CCN(C(=O)c2cc(-c3ccccc3O)on2)CC1 | 6.6
73 | CCCCn1c(O)c(C(CC)=Nc2ccc(C(=O)O)cc2)c(=O)[nH]c1=O | 20.6
74 | Cc1ccc2c(c1)cc(CN(Cc1ccco1)C(=O)N1CCOCC1)c1nnnn12 | -14.7
75 | COc1cccc(C(=O)N(CN2CCCC2=O)c2cc(C)on2)c1 | 8.05
76 | Cn1c(=O)c2c(nc(N3CCCCC3)n2CC(O)COc2ccccc2)n(C)c1=O (centres unmarked) | -2.61
77 | O=C(O)C1CC=CCC1C(=O)NCCCCc1ccccc1 (centres unmarked) | 27.4
78 | COc1cc(C2C(C(=O)c3cccs3)=C(O)C(=O)N2CCN2CCOCC2)ccc1OCCC(C)C (centres unmarked) | 14.7
79 | O=C(NCCN1CCN(Cc2ccccc2Cl)CC1)Nc1ccccc1 | -47.5
80 | Cc1nc(N2CCN(S(=O)(=O)c3ccccc3)CC2)c2cc(-c3ccccc3)sc2n1 | 6.6
81 | COc1ccc(N=c2scc(C)n2CCCN2CCCC2=O)cc1 | -18.9
82 | CC(C)(C)NC(=O)COC(=O)c1ccccc1C(=O)c1ccccc1 | 39.7
83 | O=C(NCc1ccccc1)N1CCC(CO)(CCc2ccccc2)CC1 | -38
84 | COc1ccccc1NS(=O)(=O)c1cccc(C(=O)NN=C2CCCC2)c1 | 0.33
85 | O=S(=O)(c1ccccc1)N1CCN(c2ncccn2)CC1 | -4.57
86 | O=C(N/N=C/c1sc(N2CCCCC2)nc1-c1cccs1)C1CC1 | -7.28
